The other results are listed elsewhere or left out. Single values of this set are uncertain. Values with irradiation are relative to irradiated vehicle.
system: A549-Dual; experiment: ISRE reporter (Lucia luciferase) activity, viability-corrected, relative to vehicle (fold change vs vehicle); higher = more activation of STING-IRF / NF-kB immune response reporter; details: 10 µM; irradiation: 8 Gy/4 fr

Compound | ISRE reporter
CNS(=O)(=O)Cc1ccc2[nH]cc(CCN(C)C)c2c1.O=C(O)CCC(=O)O [Sumatriptan Succinate] | 0.94
CC(C)(C(=O)O)c1ccc(C(O)CCCN2CCC(C(O)(c3ccccc3)c3ccccc3)CC2)cc1.Cl (configuration not stated) [Fexofenadine HCl] | 0.576
CCCCCCCCCCCCN1CCCCCC1=O [Laurocapram] | 0.273
COc1ccc(OC)c(C(O)CNC(=O)CN)c1.Cl (configuration not stated) [Midodrine hydrochloride] | 0.66
CC1OC(OC2C(O)C(OCCc3ccc(O)c(O)c3)OC(COC3OC(CO)C(O)C(O)C3O)C2OC(=O)/C=C/c2ccc(O)c(O)c2)C(O)C(O)C1O (configuration not stated) [Echinacoside] | 0.149
O=C(O)CCCCCCCC(O)C(O)CCCCCCO (configuration not stated) [Aleuritic Acid] | 0.617
O=C([O-])CCC(=O)OCC(NC(=O)C(Cl)Cl)C(O)c1ccc([N+](=O)[O-])cc1.[Na+] (configuration not stated) [Chloramphenicol sodium succinate] | 0.736

same assay, conditions: 10 µM; irradiation: none

Compound | ISRE reporter
Cc1cc(O)c2c(c1)C(=O)c1cc(O)cc(O)c1C2=O [Emodin] | 0.263
C1CCNC1 [Pyrrolidine] | 0.779
NC(=O)c1ccccc1O [Salicylamide] | 0.744
COc1cc2nc(N3CCN(C(=O)c4ccco4)CC3)nc(N)c2cc1OC.Cl [Prazosin HCl] | 0.876
O=[N+]([O-])c1ccc(O)cc1 [4-Nitrophenol] | 0.722
Nc1ccc(S(=O)(=O)Nc2ncccn2)cc1 [Sulfadiazine] | 0.904
CC1(C)SC2C(NC(=O)Cc3ccccc3)C(=O)N2C1C(=O)O.CC1(C)SC2C(NC(=O)Cc3ccccc3)C(=O)N2C1C(=O)O.c1ccc(CNCCNCc2ccccc2)cc1 (configuration not stated) [Benzathine penicilline] | 0.745
CC(C)(C(=O)c1cccnc1)c1cccnc1 [Metyrapone] | 0.72
CCCCC(F)(F)C(=O)CCC1C(O)CC(=O)C1CCCCCCC(=O)O (configuration not stated) [Lubiprostone] | 1.01
Cc1nc(C(=O)NCC(=O)O)c(O)c2ccc(Oc3ccccc3)cc12 [Roxadustat (FG-4592)] | 0.475
CN1CCN(CC(=O)N2c3ccccc3C(=O)Nc3cccnc32)CC1.Cl.Cl [Pirenzepine dihydrochloride] | 0.94
CN(Cc1ccc(C(C)(C)C)cc1)Cc1cccc2ccccc12.Cl [Butenafine HCl] | 0.654
O=CC(O)C(O)C(O)CO (configuration not stated) [Xylose] | 0.777
CCCCCCOC(=O)N=C(N)c1ccc(NCc2nc3cc(C(=O)N(CCC(=O)OCC)c4ccccn4)ccc3n2C)cc1 [Dabigatran Etexilate] | 0.93
COc1cc2nc(N3CCN(C(=O)C4CCCO4)CC3)nc(N)c2cc1OC.Cl.O.O (configuration not stated) [Terazosin HCl Dihydrate] | 0.721
O=S(=O)([O-])CCCS(=O)(=O)[O-].[Na+].[Na+] [Eprodisate disodium] | 0.748
COC(=O)C1=C(C)NC(C)=C(C(=O)OCCN2CCN(C(c3ccccc3)c3ccccc3)CC2)C1c1cccc([N+](=O)[O-])c1 (configuration not stated) [Manidipine] | 0.934
Cc1nnc(SCC2=C(C(=O)[O-])N3C(=O)C(NC(=O)Cn4cnnn4)C3SC2)s1.[Na+] (configuration not stated) [Cefazolin Sodium] | 0.768
CCN(CC)CCNC(C(=O)OCCC(C)C)c1ccccc1.Cl.Cl (configuration not stated) [Camylofin Chlorhydrate] | 0.545
CCCCc1ncc(/C=C(\Cc2cccs2)C(=O)O)n1Cc1ccc(C(=O)O)cc1.CS(=O)(=O)O [Eprosartan Mesylate] | 0.773
O=C(O)/C=C/c1ccc(O)cc1 [p-Coumaric Acid] | 0.448
COc1cc(CNC(=O)CCCC/C=C/C(C)C)ccc1O [Capsaicin(Vanilloid)] | 0.461
O=C(/C=C/c1ccc(O)c2c1C(C(=O)OC(Cc1ccc(O)c(O)c1)C(=O)O)C(c1ccc(O)c(O)c1)O2)OC(Cc1ccc(O)c(O)c1)C(=O)O (configuration not stated) [Salvianolic acid B] | 0.498
CCCCCCCCCCC(=O)O [Undecanoic acid] | 0.67
CC1COc2c(N3CCN(C)CC3)c(F)cc3c(=O)c(C(=O)O)cn1c23 (configuration not stated) [Levofloxacin hydrate] | 0.729

Reference: the supplement of paper PMC9174493
